Assays:
[1] = molecular target: T1, CCZ1 (1–482) (human, UniProt P86791 1-482); experiment: cryo-EM structure; MON1A (235–652)/CCZ1 (1–482)/C18orf8 (1–657)/Rab7A (1–181) T22N complex, 3.41 Å; conditions: both partners purified
T1 construct: human CCZ1, residues 1-482; Subunit of m3, written alone for the pairwise contacts in the structure
T1 sequence (looked up): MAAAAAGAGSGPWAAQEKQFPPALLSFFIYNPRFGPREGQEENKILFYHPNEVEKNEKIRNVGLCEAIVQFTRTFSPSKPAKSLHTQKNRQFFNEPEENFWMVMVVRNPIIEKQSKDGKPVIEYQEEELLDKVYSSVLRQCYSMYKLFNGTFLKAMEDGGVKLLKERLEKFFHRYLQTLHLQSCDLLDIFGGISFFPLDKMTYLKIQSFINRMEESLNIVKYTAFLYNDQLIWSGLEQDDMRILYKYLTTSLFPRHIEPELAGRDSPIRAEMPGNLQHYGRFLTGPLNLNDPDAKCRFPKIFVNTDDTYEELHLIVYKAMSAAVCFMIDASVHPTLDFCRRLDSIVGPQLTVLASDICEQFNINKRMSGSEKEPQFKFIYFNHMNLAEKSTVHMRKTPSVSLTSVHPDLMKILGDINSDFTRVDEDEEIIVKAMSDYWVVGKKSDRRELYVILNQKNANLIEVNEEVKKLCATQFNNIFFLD

[2] = molecular target: T2, MON1A/CCZ1/C18orf8 complex (purified, used for SEC and MALS) (human, UniProt Q86VX9; P86791; Q96DM3); experiment: SEC-MALS; MALS measurement of the purified MON1A/CCZ1/C18orf8/Rab7A (1–181) T22N quaternary complex in solution; conditions: both partners purified
T2 construct: human MON1A; human CCZ1; Methods are in the supplement; copies: 1 + 1 + 1

B1: Rab7A ([…]) T22N (domain or fragment)
chain: not shown
notes: human Rab7A […] (C-terminal membrane-associating region […] deleted) with T22N; In the Cryo-EM structure GDP and Mg2+ are missing from Rab7A; also called T22N mutant of Rab7A ([…]); source: E. coli cells, purified
binding result [1]: binds
stoichiometry N [2]: 1
